Experimental data taken from PubChem BioAssay AID1508624 (National Center for Advancing Translational Sciences (NCATS), 2021).
About 120 (0.25%) of roughly 48,000 compounds were called active. About 4% were inconclusive and are not listed. Calls come from the whole dose curve; as a rule, active = well fitted activation curve with a large enough effect; inconclusive = small, poorly fitted or top-dose-only effect, or another doubt; inactive = no such curve, though single readings can be large or run the other way. Some of the results follow.

assay: Primary qHTS for Identification of Small Molecule Activators of Huntingtin-Antisense Promoter Activity; settings: HEK293 HTT-AS promoter firefly luciferase reporter (activity 0% = vehicle and -100% = no light), 24 h; series mostly up to 57.5 µM; activity change, positive = activation: at the top concentration; note: nearly all actives have a fitted effect of over 55% in size
How it was run: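 Firefly luciferase signal from promoter-reporter HEK293 cells was scaled between vehicle (0%) and zero RLU (-100%). Compounds were tested at final concentrations of up to 57.5 uM over 24 h at 37 degrees C. PTC124 at 50 uM final served as control inhibitor.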

Activity change, positive = activation, inactive:
CCCS(=O)(=O)N1CCCC(C(=O)NCCOC)C1 (stereo not drawn) -16.8%
CCCCN(CCCC)C1=C(C(=O)c2ccccc2)N(C)S(=O)(=O)c2ccccc21 -19.3%
Cc1ccccc1CNC(=O)CN(c1cccc(C)c1C)S(C)(=O)=O -6.69%
COc1ccccc1NC(=O)CSC1=Nc2ccccc2C2=NC(CCC(=O)NCc3cccs3)C(=O)N12 (stereo not drawn) -19.1%
CCCCN(CC)C(=O)Cn1ncc2c3ccccc3n(CCC)c2c1=O -21.9%
COc1ccc(-n2cc(C(=O)NCc3ccccc3Cl)c3ccccc3c2=O)cc1 -7.11%
Cn1c(=O)[nH]c2cc(-c3noc(-c4cccc(Cl)c4)n3)ccc21 2.89%
CCCNC(=O)Cn1nc(-c2ccc(F)cc2)c2cnc3ccc(F)cc3c21 11.3%
CCOc1cccc(C(=O)N(Cc2ccc(CC)cc2)C2CCS(=O)(=O)C2)c1 (stereo not drawn) -3.5%
COc1ccc(-c2nc3scc(CCNS(=O)(=O)c4ccc(NC(C)=O)cc4)n3n2)cc1 -22.4%
CCN(CC)CCNC(=O)c1c(C)[nH]c(/C=C2\C(=O)Nc3ccc(F)cc32)c1C -24.4%
COc1cc2nc(SCC(=O)Nc3ccccc3F)n3nc(-c4ccccc4)nc3c2cc1OC -6.02%
CCOc1ccc(Cn2c(CNS(=O)(=O)c3cccc(Cl)c3)nc3cccnc32)cc1 -23.1%
CCc1ccc(NC(=O)CSc2nc3c(sc4ccccc43)c(=O)n2CCCOC(C)C)cc1 -7.04%
COc1ccccc1C(=O)N1CCN(Cc2cc(=O)oc3cc(C)ccc23)CC1 -17.8%
Cc1ccc(CNC(=O)c2ccc(CSCc3ccccc3C)o2)cc1 -17.7%
COc1ccc(-c2nc3ccc(NS(=O)(=O)c4ccc(Cl)cc4)cc3o2)cc1 -13%
COc1ccc(-c2nnc(SCc3cccc(Cl)c3)o2)cc1 17%
CC(=O)N1CCC(N(Cc2ccc(C)o2)C(=O)Nc2ccc(C)cc2)CC1 -1.5%
CCOc1ccc(OCC)c(NS(=O)(=O)c2ccc(-c3coc(C)n3)cc2)c1 -37.4%
Cn1c(=O)[nH]c(=O)c2c1nc(NCCc1ccccc1)n2Cc1ccc(F)cc1 -18.5%
COc1ccc(NC(=O)c2c(NC(=O)c3ccc(Br)cc3)sc3c2CCCC3)cc1 -60.4%
Cn1cc(S(=O)(=O)N2CCOCC2)cc1C(=O)Nc1ccc(Cl)c(C(F)(F)F)c1 -39.5%
Cc1cc(NC(=O)Nc2nnc(N(C)Cc3ccccc3)s2)ccc1Br -15.1%
CCOc1ccc2nc(NC(=O)c3nc(SC)ncc3Cl)sc2c1 24.6%
CCOc1ccccc1NC(=O)Cc1noc2ccc(C)cc12 14%
COc1cc(NC(=O)c2cn(C3CCCC3)c(=O)c3c2c2ccccc2n3C)cc(OC)c1OC -34.5%
CC(=O)C1=C(c2ccc(Cl)cc2)N(C(C)=O)n2c(nnc2C2CCCCC2)S1 -17%
Cc1ccc(Cl)cc1N(C)C(=O)c1cn(C2CCCCC2)c(=O)c2c1c1ccccc1n2C -8.47%
Cc1ccc(N(CC(=O)Nc2cccc(Cl)c2)S(=O)(=O)c2cccs2)cc1 -31.7%
CCN(Cc1ccccc1)S(=O)(=O)c1ccc2c(c1)CC(C)N2C(=O)C1CCC1 (stereo not drawn) -33%
Cc1ccc2c(c1)N(CCC(=O)NCc1ccccc1Cl)C(=O)CO2 -16%
O=c1c2oc3ccccc3c2n(Cc2ccccc2F)c(=O)n1Cc1ccccc1 -18.5%
Cc1ccc2onc(CC(=O)Nc3ccc(C(C)C)cc3)c2c1 -2.96%
COc1cccc(CNC(=O)c2cc3c(=O)oc4ccc(C)cc4c3s2)c1 -1.14%
CCCCNC(=O)c1cccc(-n2c(C)nc3cccnc32)c1 -6.36%
Fc1ccc2c(c1)-c1nc(-c3ccccc3)cc(-c3ccccc3)c1CO2 0.28%
COc1ccc(N(C(=O)c2cccc(C)c2)S(=O)(=O)c2ccc(Cl)cc2)cc1 -35.8%
CCOc1cc(C(=O)N2CCn3c4c(c5cc(C)ccc53)CCCC42)cc(OCC)c1OCC (stereo not drawn) -8.65%
CCOc1ccc(CNS(=O)(=O)c2ccc(-c3coc(C)n3)cc2)cc1 -27.3%
COc1ccc(N2CCN(CCCNC(=O)Cn3c(-c4cccs4)cc4ccccc43)CC2)cc1 -31.4%
COc1cccc(C2C(C(=O)Nc3ccc(C)cc3C)=C(C)Nc3nc4ccccc4n32)c1OC (stereo not drawn) -16.8%
COc1ccc2nc(N(Cc3cccnc3)C(=O)C3CCCCC3)sc2c1 -3.31%
CC1(C)C(=O)N(CC(=O)Nc2ccc(Br)cc2F)c2ccccc21 -17.2%
Cc1nc2ccc(S(=O)(=O)N(C)CC(=O)Nc3cccc(C(F)(F)F)c3)cc2s1 -28.1%
CCOC(=O)c1cc(S(=O)(=O)N2CCN(c3ccccc3F)CC2)[nH]n1 -17.7%
CC(=O)c1cc(-c2ccccc2)n(CCC(=O)Nc2ccc(C)cc2C)c1C -25.2%
COc1ccc(N2CC(NC(=O)c3cc4ccccc4o3)CC2=O)cc1 (stereo not drawn) -11%
Cc1cc(C(=O)NCc2ccc(Cl)cc2)c2c(C)nn(-c3ccccc3)c2n1 17.4%
COc1ccccc1CNC(=O)CCC1N=C2c3ccccc3N=C(SCc3ccc(C)cc3)N2C1=O (stereo not drawn) 12.6%
COC(=O)c1c(NC(=O)Nc2ccc(Cl)cc2)sc(C)c1C -30.7%
Cc1ccc2c(c1)N(C(=O)Nc1cccc(C)c1C)CCO2 -26.3%
CS(=O)(=O)N1CCc2cc(C(=O)N3CCN(c4ccccc4)CC3)ccc21 10.2%
CCCc1nnc(NC(=O)c2cc(=O)c3cc(Cl)ccc3o2)s1 -3.18%
COc1ccc(CCC(=O)NCCc2csc(-c3ccc(C(F)(F)F)cc3)n2)cc1 -23.4%
Cc1ccc2c(c1)c(N1CCCC1=O)c(C(=O)Nc1ccc(F)cc1F)n2C -22.6%
Cc1cccc(N(C)c2ccc3cc(S(=O)(=O)N4CCCC4)ccc3n2)c1 -13.5%
CCC(=O)N1CCc2cc(S(=O)(=O)NC(Cc3ccccc3)C(=O)Nc3cccc(OC)c3)ccc21 (stereo not drawn) 5.26%
Cc1ccc(-c2nnc3c4ccccc4c(C)nn23)cc1NC(=O)c1ccccc1Cl -4.87%
COc1cccc(N2CCN(c3ncnc4onc(-c5ccc(F)cc5)c34)CC2)c1 -11.3%
CCOC(=O)c1cc(S(=O)(=O)N2CCN(c3ccc(C)cc3C)CC2)[nH]n1 -14.9%
Cc1ccc(C)c(NC(=O)CSC2=Nc3ccccc3N=C(c3ccc(F)cc3)C2)c1 -15.7%
O=C(CCCCCn1c(=O)[nH]c2ccccc2c1=O)NCc1ccccc1 5.27%
